Reference: PubChem BioAssay (NCATS)
Values joined by “and” are separate entries in the source; they are usually repeats but may differ in a detail not shown here. Identical values can stand only once. The inconclusive results got no clear call from the source; some entries with a clear call stand among them for comparison. Potencies of inconclusive entries are doubtful fits and often do not repeat. Active and inactive are the calls of the source. Calls come from the whole dose curve; as a rule, active = well fitted curve in the direction sought with a large enough effect; inconclusive = small, poorly fitted or top-dose-only effect, or another doubt; inactive = no such curve, though single readings can be large; an effect the other way counts as inactive or inconclusive.

Legend:
[1] = qHTS of pediatric cancer cell lines to identify multiple opportunities for drug repurposing: Primary screen for BT-37 cells (AID 1347094)
In short: (§1)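 CRCs from 8- or 11-point titrations (lowest final 0.59 nM NPC, 0.78 nM MIPE). Cell viability: CellTiter-Glo after 48 h incubation, 15 min room-temperature development, luminescence imaging.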

[2] = qHTS of pediatric cancer cell lines to identify multiple opportunities for drug repurposing: Primary screen for U-2 OS cells (AID 1347096); note: nearly all actives have a fitted effect of over 50% in size
In short: (§2)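 Cells (500-1,000/well) rested 5 h, then received compounds for 48 h; metabolically active cells were measured by CellTiter-Glo luminescence. Final concentrations spanned up to 46 µM (MIPE, 11-point) or 0.59 nM-46 µM (NPC, 8-point) in primary screens, 11-point in follow-ups.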

[3] = qHTS of pediatric cancer cell lines to identify multiple opportunities for drug repurposing: Primary screen for LAN-5 cells (AID 1347100); settings: LAN-5 neuroblastoma viability, CellTiter-Glo luminescence, 48 h; activity change, negative = cytotoxic: at 46 µM (top of the series)
In short: as §2

[4] = qHTS of pediatric cancer cell lines to identify multiple opportunities for drug repurposing: Primary screen for NB-EBc1 cells (AID 1347095)
In short: as §1

[5] = qHTS of pediatric cancer cell lines to identify multiple opportunities for drug repurposing: Primary screen for Saos-2 cells (AID 1347097); settings: Saos-2 viability, CellTiter-Glo ATP luminescence, 48 h; activity change, negative = cytotoxic: at 46 µM (top of the series); note: nearly all actives have a fitted effect of over 40% in size
In short: as §1

[6] = qHTS of pediatric cancer cell lines to identify multiple opportunities for drug repurposing: Primary screen for BT-12 cells (AID 1347101); note: nearly all actives have a fitted effect of over 25% in size
In short: as §2

[7] = qHTS of pediatric cancer cell lines to identify multiple opportunities for drug repurposing: Primary screen for SK-N-SH cells (AID 1347098); note: nearly all actives have a fitted effect of over 65% in size
In short: as §2

[8] = qHTS of pediatric cancer cell lines to identify multiple opportunities for drug repurposing: Primary screen for NB1643 cells (AID 1347099); note: nearly all actives have a fitted effect of over 50% in size
In short: as §1

Measured: Potency
Potency is the fitted concentration of half-maximal effect; tags give direction and shape of the fitted curve.

CO[C@H]1C=CC=C(C)C(=O)NC2=CC(=O)C(NCCN(C)C)=C(C[C@@H](C)C[C@H](OC)[C@@H](O)[C@@H](C)C=C(C)[C@@H]1OC(N)=O)C2=O
active: [1] 0.385 µM | [2] 935 nM | [3] 0.132 µM

CC[C@@H](C)[C@H](NC(=O)[C@H](CC1CCCCC1)NC(=O)c1ccno1)C(=O)N1CCC2(CCc3ccccc32)CC1
inconclusive: [1] 7.69 µM [cytotoxic, partial curve, poor fit] | [4] 14.8 µM [cytotoxic, partial curve] | [5] 13.2 µM [cytotoxic, partial curve, poor fit] | [3] 10.5 µM [cytotoxic, partial curve, poor fit] | [6] 21.7 µM [cytotoxic, partial curve]

O=c1c(O)c(-c2ccc(O)cc2)oc2cc(O)cc(O)c12
active: [4] 9.35 µM | [8] 11.8 µM | [3] 6.62 µM
inconclusive: [1] 13.7 µM [cytotoxic, partial curve] | [7] 38.3 µM [cytotoxic, single point] | [6] 24.3 µM [cytotoxic, partial curve]

CCCCc1ccc2nc(NC(=O)OC)[nH]c2c1
active: [1] 43.2 nM and 61.7 nM
inconclusive: [2] 1.18 µM [cytotoxic, full curve, poor fit] and 106 nM [cytotoxic, full curve] | [8] 0.0119 µM [cytotoxic, full curve] | [3] 0.15 µM [cytotoxic, full curve]

CC(=O)Oc1cc2c(s1)CCN(C(C(=O)C1CC1)c1ccccc1F)C2 (configuration not stated)
active: [1] 1.09 µM | [6] 3.06 µM
inconclusive: [2] 935 nM [cytotoxic, full curve, poor fit] | [5] 1.18 µM [cytotoxic, full curve] | [8] 9.35 µM [cytotoxic, partial curve] | [3] 1.05 µM [cytotoxic, full curve]

CC(O)=C(C#N)C(=O)Nc1ccc(C(F)(F)F)cc1
inconclusive: [1] 19.3 µM [cytotoxic, partial curve] | [5] 7.43 µM [cytotoxic, partial curve, poor fit] | [6] 24.3 µM [cytotoxic, partial curve]
active: [4] 4.18 µM

C#C[C@]1(O)CC[C@H]2[C@@H]3CCc4cc(O)ccc4[C@H]3CC[C@@]21C
inconclusive: [1] 38.9 µM [cytotoxic, single point] | [4] 29.9 µM [cytotoxic, single point] | [7] 10.9 µM [cytotoxic, partial curve] | [3] 26.6 µM [cytotoxic, single point] | [6] 34.7 µM [cytotoxic, single point]

Cc1nc2ccccc2n1Cc1ccc(Cl)cc1
inconclusive: [1] 11 µM [cytotoxic, partial curve] | [5] 9.44 µM [cytotoxic, partial curve, poor fit] | [7] 0.307 µM [cytotoxic, partial curve, poor fit] | [8] 15 µM [cytotoxic, partial curve, poor fit] | [3] 6.68 µM [cytotoxic, full curve, poor fit] | [6] 1.95 µM [cytotoxic, full curve]

CO[C@H]1O[C@@H]2O[C@@]3(C)CC[C@@H]4[C@@H](C)CC[C@@H]([C@H]1C)[C@@]24OO3
inconclusive: [1] 7.69 µM [cytotoxic, partial curve] | [4] 16.6 µM [cytotoxic, partial curve] | [5] 18.7 µM [cytotoxic, partial curve] | [8] 23.5 µM [cytotoxic, partial curve] | [6] 3.85 µM [cytotoxic, partial curve]

O=c1cc(-c2ccccc2)oc2cc(O)c(O)c(O)c12
inconclusive: [1] 27.3 µM [cytotoxic, single point] | [2] 18700 nM [cytotoxic, partial curve, poor fit] | [6] 24.3 µM [cytotoxic, partial curve, poor fit]
